From ChEMBL document CHEMBL4888484, “Replenishing the malaria drug discovery pipeline: Screening and hit evaluation of the MMV Hit Generation Library 1 (HGL1) against asexual blood stage Plasmodium falciparum ,using a nano luciferase reporter read-out” (2022)
Among all 150,000 compounds or so, about 540 (0.36%) showed an effect of 50% or more. The list shows a part of the results.

What follows are compounds tested on Plasmodium falciparum (assay: Primary screen in NF54 nanoGlo assay, in single point, at 2uM, 72h; a lower Z score goes with more inhibition). Conditions: timepoint 72 hour.
Type: functional, Erythrocyte

Row | SMILES | % Inhibition [%] | Z score
1 | Cc1ccc(-c2nc3cccnc3n2CCN2CCN(C(=O)Nc3cc(Cl)ccc3C)CC2)cc1 | 12 | -1.57
2 | COC(=O)c1ccc(N(C)Cc2nnc3ccccn23)nn1 | -6 | 0.74
3 | FC(F)(F)Cc1nnc([C@@H]2CCCCN2)o1 | -15 | 1.5
4 | C=CCN1C(=O)COc2ccc(-c3nc(NC(=O)c4ccccc4OC)sc3C)cc21 | -12 | 1.9
5 | Cn1nc(C(F)F)c2cc(C(=O)N3CCCC3C3COCCC3(C)O)sc21 (stereo not drawn) | 14 | -1.59
6 | CC[C@H](NC(=O)c1ccnc(NC(=O)C(C)C)c1)c1c(C)noc1C | 22 | -2.83
7 | CC1(C)OC(=O)N(CC(=O)N2CCC(c3ncon3)CC2)C1=O | -7 | 0.65
8 | COc1ccc(CNC(=O)COc2ncnc3onc(-c4cccc(F)c4)c23)c(OC)c1 | 3 | -0.46
9 | O[C@@]1(C(F)(F)F)CCCN(Cc2nc(C3CCCC3)no2)C1 | 4 | -0.66
10 | COc1ccc(C2C(CNC(=O)Cn3cccn3)CCCN2C)cc1 (stereo not drawn) | -11 | 2.03
11 | O=C(c1cnccn1)N1CCO[C@H](c2ccccc2)CC1 | 1 | -0.14
12 | Cc1ccc(NC(=O)NCCCNC(=O)C2CCC2)nc1 | -14 | 1.44
13 | CN(Cc1ncc[nH]1)Cc1cccn1-c1cccc(C#N)c1 | -2 | 0.22
14 | Cc1ccc(Cc2nc(CN(C)C(=O)OC(C)(C)C)no2)o1 | -4 | 0.73
15 | Cc1cc(C(=O)NCCc2cnn(-c3ccccc3)c2)cc(=O)[nH]1 | -7 | 1.22
16 | CC(C)c1cc(-c2ccc(O)cc2)nc(C(F)(F)F)n1 | 1 | -0.22
17 | NCC(=O)N1CCc2nc(-c3ccncc3)nc(N3CC=CC3)c2CC1 | 0 | -0.03
18 | Cc1nn(C)c(C)c1CN1CCC[C@H]1c1nnc2n1CCN(C(=O)C(C)C)CC2 | 5 | -0.94
19 | COc1ccc(NC(=O)[C@@H]2CC(=O)Nc3cc(-c4ccccc4)nn32)cc1 | -9 | 1.29
20 | Cn1nc(C(=O)N2CCC3(CCCCCC3)C2)c2c1CCC(=O)C2 | -6 | 0.98
21 | CC[C@](C)(NCCCS(C)(=O)=O)c1nccs1 | -14 | 1.66
22 | COC(=O)c1cccc(C(=O)OC2CCCC2)n1 | -13 | 1.75
23 | N#Cc1nccnc1N1CCC[C@H](S(=O)(=O)NC2CCCC2)C1 | 1 | -0.06
24 | Cc1ccc(CN(Cc2ccc(F)cc2)C(=O)CN(C(=O)NC(C)(C)C)C2CC2)o1 | -4 | 0.51
